# According to PubChem BioAssay AID504339 (National Center for Advancing Translational Sciences (NCATS), 2011):
# In all, about 390,000 compounds went through this assay and about 17,000 (4.4%) were called active. Inconclusive means that the source gave no clear call. Such entries were picked first, then a sample of the others. Calls follow the shape of the dose curve; as a rule, active = well fitted inhibition curve with a large enough effect; inconclusive = small, poorly fitted or top-dose-only effect; inactive = no such curve, though single readings can be large or run the other way. Where the call is inconclusive, the potency comes from a doubtful curve fit.
# Biological target: Lysine-specific demethylase 4A (Homo sapiens) (UniProt O75164)
# Assay: qHTS Assay for Inhibitors of JMJD2A-Tudor Domain; also: nearly all actives have a fitted effect of over 50% in size
# Settings: AlphaScreen JMJD2A-Tudor / H3K4me3 peptide binding; activity change, negative = inhibition: at 114 µM (top of the series)
# % is scaled to controls: 0 for no effect and ±100 for the full control effect; potency is read from the fitted curve at half-maximal effect; tags tell the direction and shape of the fitted curve.
# Chain of UniProt O75164 (O75164 whole entry, looked up, the tested form may be a part): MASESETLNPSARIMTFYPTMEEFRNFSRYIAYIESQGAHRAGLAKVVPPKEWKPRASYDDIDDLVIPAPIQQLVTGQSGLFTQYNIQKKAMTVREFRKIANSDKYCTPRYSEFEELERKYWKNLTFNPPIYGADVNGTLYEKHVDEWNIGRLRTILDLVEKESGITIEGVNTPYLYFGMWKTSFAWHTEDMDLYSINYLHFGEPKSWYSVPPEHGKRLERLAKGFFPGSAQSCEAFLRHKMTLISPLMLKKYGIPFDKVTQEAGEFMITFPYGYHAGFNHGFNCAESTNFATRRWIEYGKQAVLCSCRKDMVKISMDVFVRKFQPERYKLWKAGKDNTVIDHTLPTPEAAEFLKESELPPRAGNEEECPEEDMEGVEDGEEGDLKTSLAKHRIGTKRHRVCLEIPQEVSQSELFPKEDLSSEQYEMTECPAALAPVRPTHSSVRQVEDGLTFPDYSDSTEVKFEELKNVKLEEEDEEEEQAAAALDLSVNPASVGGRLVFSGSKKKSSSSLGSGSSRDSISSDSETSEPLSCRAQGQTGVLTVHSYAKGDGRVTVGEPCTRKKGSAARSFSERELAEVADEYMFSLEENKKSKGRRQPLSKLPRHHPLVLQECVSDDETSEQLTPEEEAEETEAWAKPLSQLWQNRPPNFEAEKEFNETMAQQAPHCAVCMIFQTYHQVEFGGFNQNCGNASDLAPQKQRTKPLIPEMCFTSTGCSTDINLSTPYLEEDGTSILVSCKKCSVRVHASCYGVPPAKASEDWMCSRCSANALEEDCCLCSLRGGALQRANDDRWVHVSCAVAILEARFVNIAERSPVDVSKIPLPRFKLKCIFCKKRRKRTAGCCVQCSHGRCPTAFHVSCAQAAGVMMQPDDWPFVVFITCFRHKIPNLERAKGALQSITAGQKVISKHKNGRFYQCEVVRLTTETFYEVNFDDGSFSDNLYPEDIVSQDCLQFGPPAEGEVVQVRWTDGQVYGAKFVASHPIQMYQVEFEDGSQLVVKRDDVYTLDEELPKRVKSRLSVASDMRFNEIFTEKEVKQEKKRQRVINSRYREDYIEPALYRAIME
SMILES,"activity change, negative = inhibition",Potency
CC(Oc1ccc(C#N)cc1)C(=O)c1ccc(F)c(F)c1 (stereo unspecified),inactive: -3.45%,–
c1coc(CNc2nc3sc4c(c3c3ncnn23)CCCC4)c1,–,"inconclusive: 79.4 µM [inhibitor, partial curve]"
CCCn1nnnc1NCc1c(F)cccc1Cl,–,"inconclusive: 25.1 µM [inhibitor, partial curve]"
Cc1cccc(/C=N/NC(=O)Cn2nccc2C)n1,–,"inconclusive: 100 µM [inhibitor, single point]"
COc1ccccc1CNC(=O)CCn1nc(C)c2c(C)n(-c3ccccc3)nc2c1=O,inactive: -8.62%,–
C=CCn1c(=O)c2ccccc2n2c(SCc3nnc(-c4ccccc4Br)o3)nnc12,inactive: -15.1%,–
CCCCN(CC)C(=O)CSc1nc2n[nH]c(C)c2c(=N)n1-c1cccc(OC)c1,–,"inconclusive: 89.1 µM [inhibitor, partial curve]"
CS(=O)(=O)c1ccc(C(=O)Nc2cc(S(C)(=O)=O)ccc2Cl)cc1,inactive: -11.9%,–
Cc1c(O)ccc(/C(Cc2ccc3ccccc3n2)=N\N)c1O,–,"inconclusive: 56.2 µM [inhibitor, partial curve]"
Cc1oc(-c2ccc(Cl)cc2)nc1CS(=O)CC(=O)N1CCN(c2cccc(C(F)(F)F)c2)CC1 (stereo unspecified),–,"inconclusive: 50.1 µM [inhibitor, partial curve]"
COc1cccc(N2CCN(c3ncnc4c3nc3n4CCCCC3)CC2)c1,–,"inconclusive: 56.2 µM [inhibitor, partial curve]"
COc1ccc(CC(=O)N/N=C(\C)c2cccs2)cc1,inactive: -17.1%,–
N#CC1=C(c2ccccc2)/C(=C/c2ccccc2)OC1=O,–,"inconclusive: 28.2 µM [inhibitor, partial curve]"
CCOC(=O)N1CCN(Cc2nc3cc(NC(=O)c4ccccc4[N+](=O)[O-])ccc3n2C(C)C)CC1,inactive: -15.9%,–
CSc1cccc(NC(=O)CCCOc2ccc(Cl)cc2Cl)c1,inactive: 29.6%,–
Cc1cc(C(=O)N2CCCC(N3CCN(c4cccc(C(F)(F)F)c4)CC3)C2)c(C)o1 (stereo unspecified),inactive: -19.2%,–
Cc1cc2ccccc2n1CCNC(=O)c1ccc(Br)o1,–,"inconclusive: 39.8 µM [inhibitor, full curve]"
Cc1cccc(C)c1NC(=O)NCCc1c[nH]c2ccccc12,inactive: -21.5%,–
CCN(CC)S(=O)(=O)c1nnc(NC(=O)COc2ccccc2F)s1,–,"inconclusive: 56.2 µM [inhibitor, partial curve]"
CCOc1ccc(NC(=O)Nc2cccn(Cc3ccccc3)c2=O)cc1,–,"inconclusive: 56.2 µM [inhibitor, partial curve]"
O=S(=O)(c1ccc(Br)cc1Cl)N1CCCN(c2ccc(C(F)(F)F)cn2)CC1,inactive: 19.4%,–
N#Cc1nc(Cc2cccc3ccccc23)oc1NCCN1CCCCC1,–,"inconclusive: 56.2 µM [inhibitor, partial curve]"
O=[N+]([O-])c1cccc(-c2csc(N/N=C/c3cccc(O)c3)n2)c1,–,active: 56.2 µM

SMILES,"activity change, negative = inhibition",Potency
COc1cc(CNc2ccc(N3CCCC3)cc2)ccc1OCc1ccccc1F,–,active: 11.2 µM
COC(=O)c1cc(C(=O)NC(C)C2CC3CCC2C3)cc([N+](=O)[O-])c1 (stereo unspecified),–,"inconclusive: 1.58 µM [inhibitor, full curve]"
CCOc1cc(N2CCOCC2)c(OCC)cc1NC(=O)COc1cccc(CC)c1,–,"inconclusive: 22.4 µM [inhibitor, full curve]"
COc1ccc(N2Cc3cccc(C(=O)Nc4cc(C)cc(C)c4)c3C2=O)cc1,–,"inconclusive: 3.55 µM [inhibitor, full curve, poor fit]"
O=C(C1=C[C@H](c2ccc(Br)cc2)C[C@H](OCc2ccc(CO)cc2)O1)N1CCN(Cc2ccc3c(c2)OCO3)CC1,–,"inconclusive: 20 µM [inhibitor, full curve]"
COCCCNCCOCCOc1ccccc1-c1ccccc1,–,active: 2.51 µM
CSc1ccccc1NC(=O)C1=CC(c2cccs2)=NS(=O)(=O)N1C,–,"inconclusive: 50.1 µM [inhibitor, partial curve]"
O=C(C1CC1)N1N=C(c2cccc(Br)c2)CC1(O)C(F)(F)F (stereo unspecified),inactive: 12.9%,–
CSC1=NC2(CCN(C(=O)NC3CCCCC3)CC2)N=C1c1ccc(C)cc1,inactive: -23.6%,–
CSC1=NS(=O)(=O)c2c(C)nn(C)c2S1,–,active: 4.47 µM
O=C(O)CCCN1C(=O)C(=O)/C(=C(/O)c2ccc(Cl)cc2)C1c1ccccc1 (stereo unspecified),–,"inconclusive: 79.4 µM [inhibitor, partial curve]"
CC(=O)Nc1ccc(S(=O)(=O)N(C)Cc2cnn(C)c2)cc1,inactive: -5.56%,–
Cc1cc(C)n2c(Nc3ccc4c(c3)OCCO4)c(-c3ccc(Cl)cc3)nc2n1,–,"inconclusive: 28.2 µM [inhibitor, single point]"
O=C(NC(Cc1ccccc1)C(=O)O)/C(=C/c1ccccc1)NC(=O)c1cccc(Br)c1 (stereo unspecified),–,"inconclusive: 22.4 µM [inhibitor, partial curve]"
CC(C)(C)c1ccc(-c2nc(C#N)c(N3CCC(C(N)=O)CC3)o2)cc1,–,"inconclusive: 56.2 µM [inhibitor, partial curve]"
COc1ccc(S(=O)(=O)n2nc(C)c(S(=O)(=O)N3CCCCCC3)c2C)cc1,–,"inconclusive: 89.1 µM [inhibitor, single point]"
O=C(NCCCn1ccnc1)c1noc2c1CCc1ccccc1-2,–,"inconclusive: 89.1 µM [inhibitor, partial curve]"
COC(=O)c1cc(S(=O)(=O)N2CCN(c3ccc(OC)cc3)CC2)c[nH]1,inactive: -23.4%,–
CCn1c(C)cc(/C=C2/SC(=O)N(C(C)C(=O)OC)C2=O)c1C (stereo unspecified),–,"inconclusive: 20 µM [inhibitor, partial curve]"
c1coc(CNc2nc(-c3cccs3)cs2)c1,–,"inconclusive: 79.4 µM [inhibitor, partial curve]"
COc1ccc(-c2cc(C(F)(F)F)n3nc(C(=O)Nc4c(C)n(C)n(-c5ccccc5)c4=O)cc3n2)cc1,inactive: -1.37%,–
Cc1nn2c(=O)cc(COC(=O)c3cccc(NC(=O)COc4ccccc4Cl)c3)nc2s1,inactive: -21.9%,–
Cc1ccc(C(=O)NC2(C(Cl)Cl)N=C(c3ccccc3)N=C2N)cc1 (stereo unspecified),inactive: -7.41%,–
